The list shows a part of the results.

Sequences and labels used below:
B1: chr1:198253062:198253183:+|CDS|ENSG00000151414|unk|total|mutant (ssRNA)
RNA: GGGAGUUCUACAGUCCGACGAUCAUGGGCUAUAAUACAUCCGCCAACUUUCGAACCGAAAAGAAAAUUGGUCGCGGACAAUUCCGUGAAGUUUACCGAGCAGCCUGUCUCUUGGAUGGAGUACCAGCCGCUUUAAAAAAAGUGCAACAGAGGAUUGAGCAUCA
B2: chr12:48342538:48342639:-|3pUTR|ENSG00000167528|unk|FALSE|unique (ssRNA)
RNA: GGGAGUUCUACAGUCCGACGAUCUUGUUAAACAUUUUGAGUAUCACUCUUGCAUACUGUUACUAUUAUAUUUUCUCUAUAUAUAGACAGAAAGGCCAUUUUAGAAUAUUAAAGGCUCUGAAAAUUUCUGCAGUAGACCCAACUCAACAGAGGAUUGAGCAUCA
B3: chr9:130903550:130903651:-|3pUTR|ENSG00000130720|msi1|total|mutant (ssRNA)
RNA: GGGAGUUCUACAGUCCGACGAUCAAAUACCCGGCAUUAUGGGGACAGAGAGCAGGGGGCAGACAGCACCCCUGGAGUCCUCCCCGCAGAUCGUGGGGAACGUCAGGUCUCUCUGAGGUCAGGUCUGAGGCCAGUAUCCUCCAGCAACAGAGGAUUGAGCAUCA
B4: chr12:50222030:50222167:-|CDS|ENSG00000050405|unk|FALSE|bound_elsewhere (ssRNA)
RNA: GGGAGUUCUACAGUCCGACGAUCAUCCAGGCAUGAAGUAGAAAAAUCAGAAAUCAGUGAAAACACAGAUGCUUCGGGCAAAAUAGAGAAAUAUAAUGUUCCGCUGAACAGGCUUAAGAUGAUGUUUGAGAAAGGUGAACCAACCAACAGAGGAUUGAGCAUCA
B5: chr2:32415991:32416109:+|CDS|ENSG00000115760|unk|FALSE|unique (ssRNA)
RNA: GGGAGUUCUACAGUCCGACGAUCUGACAUUUCUACUCUUGGACACCUGGUAAUAACCACUCAGGGAGGAUAUGUAAAAAUACUAGAUCUUUCAAACUUUGAAAUUUUGGCCAAAGUGGAGCCUCCCAAAAAGGAGGGCACUGACAACAGAGGAUUGAGCAUCA
B6: chr1:965281:965395:+|3pUTR|ENSG00000187961|unk|total|mutant (ssRNA)
RNA: GGGAGUUCUACAGUCCGACGAUCCCAUCCGUUCACGUCUCUGCAUCCAUUCCUUCAUGUCUUUAUUCCGUUGUUUAUUUAUUCCGUUAUUUAUCUUAUUUAUUGAGGGGUGAGGAGUGCCACGGCUGCCCGUUUACACCUUUACAACAGAGGAUUGAGCAUCA
B7: chr12:120764159:120764260:-|3pUTR|ENSG00000157837|msi1|total|mutant (ssRNA)
RNA: GGGAGUUCUACAGUCCGACGAUCACACACACACCGAUAUAUAUGAAUAAACAAAAAUGAAAUCCUGCUAAGAUCACGCUGUGCCGCUGACAGGGGCUUGCUGUCGUUUUGAGCAUGUCGAGCAGUUUACUGUGGCUUCCUUGUCAACAGAGGAUUGAGCAUCA
B8: chr14:103559255:103559356:-|3pUTR|ENSG00000166170|msi1|total|mutant (ssRNA)
RNA: GGGAGUUCUACAGUCCGACGAUCGCUUAACGGGGUGGGGUUUUUUUGUUUGUUCAGACAGUCUGUUCUUUUGUAAACAUUUUCCGUUGGAAAAACAGCAUCUGCAUUUUCCCCAUCCUCUACGUUUCCGAGAGGAAUCUUGUUCAACAGAGGAUUGAGCAUCA
B9: chr15:90882754:90882855:+|3pUTR|ENSG00000140564|msi1_unk|FALSE|overlapping (ssRNA)
RNA: GGGAGUUCUACAGUCCGACGAUCCACUUUGUGAUUAUUUCACUUUAGAUGCUGAUGAUUUGUUUUUGUAUUUUUAAUGGGGGUAGCAGCUGGACUACCCACGUUCUCACACCCACCGUCCGCCCUGCUCCUCCCUGGCUGCCCCAACAGAGGAUUGAGCAUCA
B10: ENSG00000205339:stop:overlap|stop_codon|ENSG00000205339|stop_codon|NA|stop_codon (ssRNA)
RNA: GGGAGUUCUACAGUCCGACGAUCGGCUCGCCACAACCUCCGCCUCCCGGAUUCGGGCAAUUCUCCUGCCUCAGCCUCUUGAGUAGCUGGGAUUACAGGUGUUAUCUAUCUGAAAAAUAUGAUAACACAGUAUUGGCCUGAUCGCAACAGAGGAUUGAGCAUCA
B11: chr13:108229279:108229380:+|CDS|ENSG00000139826|unk|FALSE|unique (ssRNA)
RNA: GGGAGUUCUACAGUCCGACGAUCGCUAAUAGCCUUGGCUUCAUGGUCUUGGGCUCUCUGCCGUAUUUCUCUUUUACCUUUAAUAGUGACUUUUCAUCUGUAUGGAGGCAUUAUCUUACUUUUGUUAAUAUUCAUAUCAAUAGCCAACAGAGGAUUGAGCAUCA
B12: ENSG00000124766:be:win_2951|3pUTR|ENSG00000124766|bound_else_gene|NA|bound_elsewhere_windowed (ssRNA)
RNA: GGGAGUUCUACAGUCCGACGAUCCUUUAUUCCUUCCUUUUCCUUUUUUUCUUUUUUUUUUCUUUUUUUUUUUUUUUUUUUGGUAGUUGUUGUUACCCACGCCAUUUUACGUCUCCUUCACUGAAGGGCUAGAGUUUUAACUUUCAACAGAGGAUUGAGCAUCA
B13: chr7:139284418:139284519:+|CDS|ENSG00000157741|unk|FALSE|bound_elsewhere (ssRNA)
RNA: GGGAGUUCUACAGUCCGACGAUCGCAAUGAAUGUACCUGCCAGCAGAGGUAGCAACCUUAACUCAAGCGGAGCUAAUAGGACUAGUCUGUCUGGGGGAACAGGAAGUGGAACACAGGGUGCUACCAAACCAUUGUCUACUCCACAACAGAGGAUUGAGCAUCA
B14: chr12:56204332:56204433:-|3pUTR|ENSG00000181852|unk|FALSE|unique (ssRNA)
RNA: GGGAGUUCUACAGUCCGACGAUCUUUUGCCUUUCUCUCACCUUAAUUCCCUUUCUUCCUUACUUUGUUACCUACCCUUAUCUUAGUGCUAACUUCUCUUUCAGGAGGAUGUCUGGGAGUAGUGUGCACUUCACAGCUGCUUUCCAACAGAGGAUUGAGCAUCA
B15: chr5:43295829:43295944:-|CDS|ENSG00000112972|unk|FALSE|unique (ssRNA)
RNA: GGGAGUUCUACAGUCCGACGAUCAAUAUCCUAGCUUUAUUCUAAAGUCAAACUUUAAAAUUUCAUGGCUUAUAUGAAUUUCAUAGUUUCCUUGGACUUCUCUUUCAGAGGGAAAUGAUAAAGAUUUUACCUUGAAUGAUUUUGCAACAGAGGAUUGAGCAUCA
B16: chr5:151662744:151662768:-|3pUTR|ENSG00000113140|msi1_unk|total|mutant (ssRNA)
RNA: GGGAGUUCUACAGUCCGACGAUCGGGGCUCCCGGGACUGCCAGGCUGUUUCAGCCAGGAAGGCCAAAAUCAAGAGUGAGAUGCCGAAAGUUGUAAAACCGAAAAAGUGGAGUUGGUGAAUCGGUUGUUCUUUCCUCACAUUUGCAACAGAGGAUUGAGCAUCA
B17: chr13:42321371:42321394:+|3pUTR|ENSG00000023516|msi1_unk|FALSE|overlapping (ssRNA)
RNA: GGGAGUUCUACAGUCCGACGAUCUUCUGUUUAUGGUGUAAUCAUUCUGAGGUGAGGCUUUUCUUAUUUCCUUUGCAUUUUGCUAGAGCUGUGCUGAGUUCAGCAUUUGCUUAUUUAACCACUACAUAAUGACAGACCAGUUAUCAACAGAGGAUUGAGCAUCA
B18: chr5:41382290:41382405:-|CDS|ENSG00000182836|unk|total|mutant (ssRNA)
RNA: GGGAGUUCUACAGUCCGACGAUCGGCCAAAAAGCUCAUGCGGAAAUGGUCCGCCACUCAGACAAUGAAUUUUACUGGCCAGCCCGGAGCUGGAAUUCGUUAUUUUGAUCUUCGAAUUUCCACCAAGCCCAGAGACCCCGACAACAACAGAGGAUUGAGCAUCA
B19: chr11:46743636:46743700:-|3pUTR|ENSG00000175216|msi1_unk|FALSE|overlapping (ssRNA)
RNA: GGGAGUUCUACAGUCCGACGAUCUUGUAAAAUUGUCCUAAUCUUUCCUAGCUUUUUAAUAGUUAAUAUUAGAAACUCUUUAAUAGUUUUCCUUUCAGUUUGUGAGCUCUUCUCUGUCGCCCUGAAGGGUCACUGUAUUCUGUACAACAGAGGAUUGAGCAUCA
B20: chr14:96341565:96341677:-|CDS|ENSG00000066739|unk|total|mutant (ssRNA)
RNA: GGGAGUUCUACAGUCCGACGAUCCUGGAACCCCAAAAUUAUUUAUGAGCCACACCCACAGCUAACCCGAAAUUUACCAGAGACCGCACCUUCUGACCCAGUGCAGAUUGGACGGUUAAUUGGCCGGUUGGAGUUGAGUCUCACCAACAGAGGAUUGAGCAUCA
B21: chr19:7477204:7477436:-|CDS|ENSG00000104883|control|control|control (ssRNA)
RNA: GGGAGUUCUACAGUCCGACGAUCCAACGCCGUGCACUGGCUGCCCCGGGGCGUGCUGUGGGCCGGCCGCUUCCCGCCGUGGCUAGUGGGCCUCAUGGGCACCAUCUCCUCAAUCCUCAGCAUGUACCAGGCGGCCCGGGCCGGCAACAGAGGAUUGAGCAUCA
B22: ENSG00000180660:stop:overlap|stop_codon|ENSG00000180660|stop_codon|NA|stop_codon (ssRNA)
RNA: GGGAGUUCUACAGUCCGACGAUCAACAAACGUGGCGACUGGCAAGAGAGAUCCUGACCAACCCGAAAAGUUUGGAAAAACUUUAGAGGAUGAUUUAAUCAAGAGCCGAAAUUAUUACCCUUCUCAAAGUCCUUAUUAAGUGUACAACAGAGGAUUGAGCAUCA

The assay concerns the target MSI1 full-length (mouse, UniProt Q61474 1-362). Description: nsRBNS (natural sequence RNA bind-n-seq); RBNS binding buffer (assumed for nsRBNS): 25 mM Tris pH 7.5, 150 mM KCl, 3 mM MgCl2, 0.01% Triton X-100, 500 ug/ml BSA, 20 U/ml SUPERase-In, 4 C; UNK is unkempt and MSI1 is Musashi-1; names of the RNAs are library labels; protein concentration not given here; high values mean tight binding.
Sequence of UniProt Q61474 (Q61474 whole entry): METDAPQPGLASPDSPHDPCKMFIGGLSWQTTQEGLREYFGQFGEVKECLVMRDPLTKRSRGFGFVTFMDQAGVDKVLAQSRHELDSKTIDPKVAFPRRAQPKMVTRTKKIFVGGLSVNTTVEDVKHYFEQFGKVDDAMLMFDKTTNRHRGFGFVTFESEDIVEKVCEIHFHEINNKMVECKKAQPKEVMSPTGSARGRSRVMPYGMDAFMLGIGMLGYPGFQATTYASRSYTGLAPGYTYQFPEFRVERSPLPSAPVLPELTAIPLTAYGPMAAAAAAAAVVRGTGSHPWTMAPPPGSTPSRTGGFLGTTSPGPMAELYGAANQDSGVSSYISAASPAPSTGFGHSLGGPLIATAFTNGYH
Take B1: the binding signal was determined as 0.279 enrichment R.

B2: the binding signal is 10.8 enrichment R.

Regarding B3, the binding signal came out at 0.394 enrichment R.

In the case of B4, the binding signal was 7.03 enrichment R. For B5 the value was 0.339 enrichment R; for B6, 8.96 enrichment R; for B7, 0.651 enrichment R.

As for B8, the binding signal was 0.302 enrichment R. For B9 the value was 0.914 enrichment R; for B10, 0.375 enrichment R; for B11, 4.42 enrichment R. B12 had a binding signal of 3.72 enrichment R.

B13 showed a binding signal of 0.529 enrichment R. In turn, B14 displayed a binding signal of 1.4 enrichment R.

In turn, B15 came in with a binding signal of 0.654 enrichment R. The figure for B16 is 0.469 enrichment R.

Molecule B17 gave a binding signal of 0.524 enrichment R.

For the molecule B18, the binding signal was found to be 0.273 enrichment R. The molecule B19 registered a binding signal of 14.1 enrichment R.

On to B20, for which the binding signal was 0.51 enrichment R. The figure for B21 is 0.477 enrichment R. The molecule B22 displayed a binding signal of 0.286 enrichment R.

Values taken from PMC12136788.
